One substance from PMC10864363 can be followed below.

Chains of the proteins cited; added tags and fusions are not shown. Residues count along the entry.
UniProt P14873: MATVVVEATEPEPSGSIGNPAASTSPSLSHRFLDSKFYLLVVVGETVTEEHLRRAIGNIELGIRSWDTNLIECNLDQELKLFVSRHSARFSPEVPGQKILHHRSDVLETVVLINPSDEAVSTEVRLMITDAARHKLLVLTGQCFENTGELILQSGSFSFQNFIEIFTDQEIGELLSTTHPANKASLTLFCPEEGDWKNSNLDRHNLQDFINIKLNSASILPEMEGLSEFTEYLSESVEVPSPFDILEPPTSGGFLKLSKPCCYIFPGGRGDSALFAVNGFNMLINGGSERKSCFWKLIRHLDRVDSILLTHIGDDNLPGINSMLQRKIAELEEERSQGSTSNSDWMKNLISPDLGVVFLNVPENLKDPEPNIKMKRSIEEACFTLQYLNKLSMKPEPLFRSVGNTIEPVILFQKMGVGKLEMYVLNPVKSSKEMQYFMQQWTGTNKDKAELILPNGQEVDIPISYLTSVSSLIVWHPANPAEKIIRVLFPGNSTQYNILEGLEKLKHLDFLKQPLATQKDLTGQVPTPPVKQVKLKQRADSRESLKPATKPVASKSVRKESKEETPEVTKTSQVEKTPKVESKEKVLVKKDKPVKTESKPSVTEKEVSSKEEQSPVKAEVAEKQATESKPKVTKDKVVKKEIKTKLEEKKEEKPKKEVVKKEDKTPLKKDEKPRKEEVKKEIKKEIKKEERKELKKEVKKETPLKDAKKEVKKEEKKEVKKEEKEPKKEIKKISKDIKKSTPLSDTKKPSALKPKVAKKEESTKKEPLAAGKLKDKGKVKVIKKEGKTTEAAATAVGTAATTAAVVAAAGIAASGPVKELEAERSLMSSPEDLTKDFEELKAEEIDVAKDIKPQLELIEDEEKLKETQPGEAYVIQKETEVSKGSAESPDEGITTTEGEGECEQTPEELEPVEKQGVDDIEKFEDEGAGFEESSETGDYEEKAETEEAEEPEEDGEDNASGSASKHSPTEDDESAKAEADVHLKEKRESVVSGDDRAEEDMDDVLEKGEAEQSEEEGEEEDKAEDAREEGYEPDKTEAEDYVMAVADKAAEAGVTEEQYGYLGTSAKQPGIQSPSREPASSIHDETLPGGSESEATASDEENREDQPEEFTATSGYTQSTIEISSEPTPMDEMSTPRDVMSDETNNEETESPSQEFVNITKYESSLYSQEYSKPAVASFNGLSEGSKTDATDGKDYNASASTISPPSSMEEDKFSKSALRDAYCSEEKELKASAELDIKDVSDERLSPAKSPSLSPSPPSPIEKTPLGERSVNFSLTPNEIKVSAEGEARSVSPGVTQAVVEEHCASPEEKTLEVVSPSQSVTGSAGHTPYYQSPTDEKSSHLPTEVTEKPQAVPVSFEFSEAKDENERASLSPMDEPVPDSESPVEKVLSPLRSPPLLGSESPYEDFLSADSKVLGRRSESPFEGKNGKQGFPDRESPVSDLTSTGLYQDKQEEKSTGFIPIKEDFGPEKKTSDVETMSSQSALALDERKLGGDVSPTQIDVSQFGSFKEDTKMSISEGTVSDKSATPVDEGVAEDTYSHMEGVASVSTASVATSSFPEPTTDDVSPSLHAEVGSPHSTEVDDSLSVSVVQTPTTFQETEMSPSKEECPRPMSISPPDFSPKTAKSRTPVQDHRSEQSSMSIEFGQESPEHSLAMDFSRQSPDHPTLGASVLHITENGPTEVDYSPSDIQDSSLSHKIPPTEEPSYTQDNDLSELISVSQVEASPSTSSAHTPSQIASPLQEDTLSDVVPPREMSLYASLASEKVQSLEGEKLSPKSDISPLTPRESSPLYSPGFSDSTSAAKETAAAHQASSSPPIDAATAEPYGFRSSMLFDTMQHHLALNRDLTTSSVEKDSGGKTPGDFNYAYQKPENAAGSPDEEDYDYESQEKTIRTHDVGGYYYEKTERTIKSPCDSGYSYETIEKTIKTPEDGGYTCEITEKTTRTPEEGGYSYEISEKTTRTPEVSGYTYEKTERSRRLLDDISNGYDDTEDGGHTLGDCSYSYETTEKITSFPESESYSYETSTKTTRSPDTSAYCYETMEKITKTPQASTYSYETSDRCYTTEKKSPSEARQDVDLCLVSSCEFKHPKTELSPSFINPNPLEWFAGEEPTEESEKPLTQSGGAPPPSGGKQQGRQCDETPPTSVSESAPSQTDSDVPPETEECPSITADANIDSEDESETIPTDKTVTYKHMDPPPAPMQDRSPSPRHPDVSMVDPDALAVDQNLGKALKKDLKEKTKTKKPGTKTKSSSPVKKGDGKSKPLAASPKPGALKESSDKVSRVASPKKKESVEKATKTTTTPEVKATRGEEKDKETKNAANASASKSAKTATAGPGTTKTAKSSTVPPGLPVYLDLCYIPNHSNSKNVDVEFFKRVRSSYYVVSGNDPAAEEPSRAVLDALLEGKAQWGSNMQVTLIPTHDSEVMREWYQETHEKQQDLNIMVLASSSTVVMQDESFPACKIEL
UniProt Q6VNS1, residues 32-825: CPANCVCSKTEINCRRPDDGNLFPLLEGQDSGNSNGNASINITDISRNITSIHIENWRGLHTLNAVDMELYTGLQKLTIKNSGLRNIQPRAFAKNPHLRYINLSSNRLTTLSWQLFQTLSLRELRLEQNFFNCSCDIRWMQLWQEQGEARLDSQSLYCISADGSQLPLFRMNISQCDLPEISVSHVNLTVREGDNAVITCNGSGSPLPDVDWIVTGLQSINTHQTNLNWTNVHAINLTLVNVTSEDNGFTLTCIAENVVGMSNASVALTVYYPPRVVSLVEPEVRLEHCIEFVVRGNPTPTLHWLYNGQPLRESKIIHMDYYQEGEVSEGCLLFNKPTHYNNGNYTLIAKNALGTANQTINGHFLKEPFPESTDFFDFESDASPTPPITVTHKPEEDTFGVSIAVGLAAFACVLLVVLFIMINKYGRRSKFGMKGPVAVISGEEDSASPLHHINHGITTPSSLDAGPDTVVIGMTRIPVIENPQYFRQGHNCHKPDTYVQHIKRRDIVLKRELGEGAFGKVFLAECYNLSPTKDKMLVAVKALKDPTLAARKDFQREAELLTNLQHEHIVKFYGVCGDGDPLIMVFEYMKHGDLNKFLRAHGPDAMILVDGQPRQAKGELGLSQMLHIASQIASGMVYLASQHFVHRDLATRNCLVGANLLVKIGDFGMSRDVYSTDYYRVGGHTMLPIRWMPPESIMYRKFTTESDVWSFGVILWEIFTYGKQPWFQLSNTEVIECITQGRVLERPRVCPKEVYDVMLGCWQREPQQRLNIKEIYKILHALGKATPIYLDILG
UniProt P15209, residues 32-821: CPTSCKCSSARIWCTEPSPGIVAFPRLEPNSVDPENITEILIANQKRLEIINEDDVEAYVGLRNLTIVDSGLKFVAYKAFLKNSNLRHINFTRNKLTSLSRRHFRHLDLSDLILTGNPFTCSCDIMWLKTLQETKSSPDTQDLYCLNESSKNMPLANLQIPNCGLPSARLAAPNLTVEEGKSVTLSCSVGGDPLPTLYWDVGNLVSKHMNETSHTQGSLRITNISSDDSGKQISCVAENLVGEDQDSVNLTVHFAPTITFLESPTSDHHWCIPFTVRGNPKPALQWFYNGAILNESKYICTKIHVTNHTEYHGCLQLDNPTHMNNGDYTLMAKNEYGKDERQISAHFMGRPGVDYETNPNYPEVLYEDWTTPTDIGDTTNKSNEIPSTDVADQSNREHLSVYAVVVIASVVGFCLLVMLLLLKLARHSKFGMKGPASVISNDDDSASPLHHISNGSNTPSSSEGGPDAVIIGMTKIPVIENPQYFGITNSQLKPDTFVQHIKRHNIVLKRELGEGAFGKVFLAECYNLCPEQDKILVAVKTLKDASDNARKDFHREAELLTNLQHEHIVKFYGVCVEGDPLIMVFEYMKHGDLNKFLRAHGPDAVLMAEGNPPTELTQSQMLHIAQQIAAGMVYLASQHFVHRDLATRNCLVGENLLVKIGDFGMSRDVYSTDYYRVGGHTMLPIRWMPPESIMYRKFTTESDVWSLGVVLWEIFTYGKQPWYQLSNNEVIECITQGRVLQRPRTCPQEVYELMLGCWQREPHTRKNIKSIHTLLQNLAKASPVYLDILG
UniProt Q3UFB7, residues 34-799: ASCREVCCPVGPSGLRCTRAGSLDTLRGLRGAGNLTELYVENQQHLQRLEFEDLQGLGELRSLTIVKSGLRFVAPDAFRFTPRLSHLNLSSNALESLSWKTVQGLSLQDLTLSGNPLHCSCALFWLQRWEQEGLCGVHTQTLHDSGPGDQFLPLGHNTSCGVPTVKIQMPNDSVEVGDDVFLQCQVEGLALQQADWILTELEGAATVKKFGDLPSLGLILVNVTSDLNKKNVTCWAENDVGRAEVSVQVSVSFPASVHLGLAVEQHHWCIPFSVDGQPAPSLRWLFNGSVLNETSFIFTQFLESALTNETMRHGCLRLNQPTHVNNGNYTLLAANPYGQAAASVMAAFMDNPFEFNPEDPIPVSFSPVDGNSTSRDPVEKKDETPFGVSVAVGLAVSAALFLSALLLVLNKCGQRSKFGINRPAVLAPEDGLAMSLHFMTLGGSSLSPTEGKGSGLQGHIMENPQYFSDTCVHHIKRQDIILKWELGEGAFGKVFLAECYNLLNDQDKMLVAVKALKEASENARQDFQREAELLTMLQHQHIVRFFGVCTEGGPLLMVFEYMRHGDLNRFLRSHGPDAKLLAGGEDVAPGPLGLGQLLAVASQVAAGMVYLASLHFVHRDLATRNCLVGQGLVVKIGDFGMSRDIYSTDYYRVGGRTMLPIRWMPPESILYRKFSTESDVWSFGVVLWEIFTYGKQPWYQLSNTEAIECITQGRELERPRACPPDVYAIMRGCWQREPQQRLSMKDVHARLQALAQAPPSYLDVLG
UniProt Q9Z0W1, residues 32-427: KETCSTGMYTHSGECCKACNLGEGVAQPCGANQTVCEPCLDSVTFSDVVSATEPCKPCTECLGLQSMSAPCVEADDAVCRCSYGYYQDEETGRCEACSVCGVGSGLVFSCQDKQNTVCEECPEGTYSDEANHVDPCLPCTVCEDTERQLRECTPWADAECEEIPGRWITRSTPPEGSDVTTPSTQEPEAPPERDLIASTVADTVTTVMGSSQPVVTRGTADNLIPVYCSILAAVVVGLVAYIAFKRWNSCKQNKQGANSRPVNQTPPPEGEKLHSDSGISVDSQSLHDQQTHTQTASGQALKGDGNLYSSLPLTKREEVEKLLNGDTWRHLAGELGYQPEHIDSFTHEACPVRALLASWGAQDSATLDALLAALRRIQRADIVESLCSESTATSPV
UniProt Q2MHE5: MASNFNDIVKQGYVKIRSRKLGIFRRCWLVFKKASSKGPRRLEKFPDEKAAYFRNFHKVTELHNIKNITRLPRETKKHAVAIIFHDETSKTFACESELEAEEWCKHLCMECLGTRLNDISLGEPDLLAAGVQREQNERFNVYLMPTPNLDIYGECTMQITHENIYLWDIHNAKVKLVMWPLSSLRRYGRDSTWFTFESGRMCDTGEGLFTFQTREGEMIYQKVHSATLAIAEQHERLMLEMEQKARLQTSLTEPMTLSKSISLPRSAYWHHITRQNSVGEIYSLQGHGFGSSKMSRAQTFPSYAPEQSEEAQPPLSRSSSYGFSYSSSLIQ

What all share (assay): co-IP; P3 mouse sciatic nerve lysate; immunoprecipitation with TrkA, TrkB, TrkC, RET, p75NTR and MAP1B antibodies or isotype control antibodies and protein G Sepharose, overnight at 4 °C; four washes with lysis buffer; Western blot with anti-DOK6
For experiment [1], the target named is microtubule-associated protein 1B (MAP1B/MAP5) (mouse (endogenous in E18.5 brain and P3 sciatic nerve)) (UniProt P14873).
Experiment [2] concerns the target TrkC (mouse (endogenous in P3 sciatic nerve)) (UniProt Q6VNS1).
Experiment [3] concerns the target Ret (mouse (endogenous in P3 sciatic nerve)) (UniProt P35546).
The target in experiment [4] is TrkB (mouse (endogenous in P3 sciatic nerve)) (UniProt P15209).
Experiment [5] has as its target TrkA (mouse (endogenous in P3 sciatic nerve)) (UniProt Q3UFB7).
For experiment [6], the target named is p75^NTR (mouse (endogenous in P3 sciatic nerve)) (UniProt Q9Z0W1).

These are yes or no findings as the source states them, for the method shown. Binding seen in cells or lysates may run through a third protein. Some binding calls cover weakened binding; strength is not graded here.

Turning to “Docking protein 6 (DOK6) (from UniProt Q2MHE5 1-331)”, the binding entry in experiment [1] is “binds”; in experiment [2] it was “binds”; in experiment [3], “binds”; in experiment [4], “no binding”; in experiment [5], “no binding”; in experiment [6], “binds”.
